Reference: paper PMC4336329 (PLoS ONE, 2015)
Hit rate of the full screen: of about 310,000 compounds, about 2,200 (0.71%) showed an effect of 50% or more. Effects have a minus sign here. Some of the results follow.

target: human ether-à-go-go-related gene (hERG) potassium channel (human, UniProt Q12809); experiment: primary screen, population patch clamp on CHO cells stably expressing hERG
Sequence (Q12809 whole entry, looked up): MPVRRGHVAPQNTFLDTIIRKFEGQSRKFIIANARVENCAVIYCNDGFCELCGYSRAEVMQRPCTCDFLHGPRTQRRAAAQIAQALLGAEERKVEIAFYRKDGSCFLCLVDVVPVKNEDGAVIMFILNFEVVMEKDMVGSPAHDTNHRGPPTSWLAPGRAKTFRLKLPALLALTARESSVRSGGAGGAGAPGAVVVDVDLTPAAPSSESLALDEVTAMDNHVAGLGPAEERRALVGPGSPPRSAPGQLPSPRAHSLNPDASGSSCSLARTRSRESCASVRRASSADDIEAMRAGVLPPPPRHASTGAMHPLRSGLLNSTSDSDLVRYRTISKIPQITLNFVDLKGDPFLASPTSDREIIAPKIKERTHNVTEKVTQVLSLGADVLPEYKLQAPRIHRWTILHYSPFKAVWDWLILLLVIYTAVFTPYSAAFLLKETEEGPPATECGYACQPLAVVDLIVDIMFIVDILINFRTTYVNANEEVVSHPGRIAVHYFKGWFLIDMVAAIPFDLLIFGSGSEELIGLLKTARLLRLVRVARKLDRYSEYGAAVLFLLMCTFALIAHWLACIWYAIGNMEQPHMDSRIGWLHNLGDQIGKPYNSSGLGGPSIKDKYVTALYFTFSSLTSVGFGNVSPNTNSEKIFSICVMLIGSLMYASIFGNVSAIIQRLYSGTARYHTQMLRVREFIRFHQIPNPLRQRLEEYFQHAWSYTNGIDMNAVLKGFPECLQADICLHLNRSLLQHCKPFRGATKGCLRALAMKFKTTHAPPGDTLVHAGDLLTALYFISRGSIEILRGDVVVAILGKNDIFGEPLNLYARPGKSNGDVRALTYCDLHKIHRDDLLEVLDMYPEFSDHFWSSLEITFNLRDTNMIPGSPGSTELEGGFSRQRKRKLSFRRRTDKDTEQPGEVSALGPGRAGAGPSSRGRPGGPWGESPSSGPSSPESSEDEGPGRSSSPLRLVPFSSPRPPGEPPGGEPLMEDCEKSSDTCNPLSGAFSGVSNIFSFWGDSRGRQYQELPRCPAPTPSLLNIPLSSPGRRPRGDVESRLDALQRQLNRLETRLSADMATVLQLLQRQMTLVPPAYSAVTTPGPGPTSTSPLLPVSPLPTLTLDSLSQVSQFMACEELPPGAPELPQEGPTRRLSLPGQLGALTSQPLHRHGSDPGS

**Q.** For `O=S(=O)(Nc1nc2ccccc2s1)c1ccc(Cl)s1`, which “hERG current change (%, negative = inhibition) at 1uM” value is on record?
**A.** 10.6%

**Q.** `NC(=O)N/N=C\c1cc(Br)ccc1O` was tested. Which “hERG current change (%, negative = inhibition) at 1uM” value did it give?
**A.** 7.14%

**Q.** Which “hERG current change (%, negative = inhibition) at 1uM” value does the source give for `COc1ccc(CNC(=O)CS(=O)(=O)Cc2nc(-c3ccc(OC)cc3)oc2C)cc1` here?
**A.** -0.658%

**Q.** How did the “hERG current change (%, negative = inhibition) at 1uM” value turn out when `CCOCC(=O)Nc1ccc(Br)c(C)c1` was run?
**A.** 12.8%

**Q.** Which “hERG current change (%, negative = inhibition) at 1uM” value does the source give for `COC(=O)c1c(NC(=S)NC(=O)c2ccco2)sc2c1CCCC2` here?
**A.** 11.9%

**Q.** `COc1cc(C2C(C#N)=C(C)NC3=C2C(=O)CC(C)(C)C3)ccc1OCCO` (centres unmarked) was tested. Which “hERG current change (%, negative = inhibition) at 1uM” value did it give?
**A.** 10.2%

**Q.** With `Cc1cccc(COC(=O)CCCNC(=O)c2ccc(Cl)cc2)c1` as the molecule, how does the “hERG current change (%, negative = inhibition) at 1uM” value read?
**A.** 3.7%

**Q.** `COC(=O)c1cc(NC(=O)Nc2cccc(Cl)c2)ccc1Cl` was tested. Which “hERG current change (%, negative = inhibition) at 1uM” value did it give?
**A.** 10%

**Q.** How did the “hERG current change (%, negative = inhibition) at 1uM” value turn out when `COc1ccccc1NS(=O)(=O)c1ccc(C)c(C(=O)NCC(c2ccco2)N2CCCCC2)c1` (centres unmarked) was run?
**A.** -20.1%

**Q.** For `COc1ccc(C(=O)N(Cc2ccccc2)c2cccc(C)c2)cc1S(=O)(=O)N1CCOCC1`, which “hERG current change (%, negative = inhibition) at 1uM” value is on record?
**A.** 2.85%

**Q.** With `CN(C)c1cccc2c(S(=O)(=O)NCc3ccc(S(N)(=O)=O)cc3)cccc12` as the molecule, how does the “hERG current change (%, negative = inhibition) at 1uM” value read?
**A.** 11.8%

**Q.** For `CC1(C)C2CCC1(C)C(OC(=O)c1ccc(O)cc1)C2` (centres unmarked), which “hERG current change (%, negative = inhibition) at 1uM” value is on record?
**A.** 11.6%

**Q.** `Cc1cc(C)nc(Nc2ncn[nH]2)n1` was tested. Which “hERG current change (%, negative = inhibition) at 1uM” value did it give?
**A.** -5.07%

**Q.** `COCC(=O)NNC(=O)Cc1ccc(Cl)cc1` was tested. Which “hERG current change (%, negative = inhibition) at 1uM” value did it give?
**A.** 11.9%

**Q.** Which “hERG current change (%, negative = inhibition) at 1uM” value does the source give for `CCC(CO)NCC#Cc1ccccc1.Cl` (centres unmarked) here?
**A.** 5.73%

**Q.** `COc1ccc(NC(=O)c2cccc3cccnc23)cc1S(N)(=O)=O` was tested. Which “hERG current change (%, negative = inhibition) at 1uM” value did it give?
**A.** 13.6%

**Q.** How did the “hERG current change (%, negative = inhibition) at 1uM” value turn out when `O=C(O)c1cc(S(=O)(=O)N2CCCc3ccccc32)ccc1Cl` was run?
**A.** 15.4%

**Q.** For `CC(C)C(=O)N(Cc1cc(=O)[nH]c2ccccc12)c1ccccc1`, which “hERG current change (%, negative = inhibition) at 1uM” value is on record?
**A.** 13.9%

**Q.** With `Cc1ccc(N2CC(C(=O)NCC3CCCO3)CC2=O)cc1Cl` (centres unmarked) as the molecule, how does the “hERG current change (%, negative = inhibition) at 1uM” value read?
**A.** 3.74%

**Q.** With `N#CCC(=O)N/N=C/c1coc2ccccc2c1=O` as the molecule, how does the “hERG current change (%, negative = inhibition) at 1uM” value read?
**A.** 9.41%

**Q.** `CCOC(=O)c1ccc2c(c1)nc(SCC(=O)NC(C)C)n2CC` was tested. Which “hERG current change (%, negative = inhibition) at 1uM” value did it give?
**A.** 10.9%

**Q.** `O=C1NC2(CCC3(CC2)OCCO3)NN1c1ccccc1` was tested. Which “hERG current change (%, negative = inhibition) at 1uM” value did it give?
**A.** -29%

**Q.** `CCNC(=S)NNC(=O)Cc1ccccc1` was tested. Which “hERG current change (%, negative = inhibition) at 1uM” value did it give?
**A.** 17.9%

**Q.** Which “hERG current change (%, negative = inhibition) at 1uM” value does the source give for `Cc1ccc(OC(=O)c2cc(C)nn2C(C)(C)C)cc1` here?
**A.** 15.4%

**Q.** For `O=C(NCc1ccc(F)cc1)C(=O)NCC(c1ccco1)N1CCOCC1` (centres unmarked), which “hERG current change (%, negative = inhibition) at 1uM” value is on record?
**A.** 9.09%

**Q.** `CCc1cc(CNC(=O)c2cccc(OC3CCN(S(C)(=O)=O)CC3)c2)on1` was tested. Which “hERG current change (%, negative = inhibition) at 1uM” value did it give?
**A.** -18.3%

**Q.** With `COc1nc(-c2ccncc2)nc2ccccc12` as the molecule, how does the “hERG current change (%, negative = inhibition) at 1uM” value read?
**A.** 10.5%

**Q.** With `Cc1cccc(-c2nc(NCCCN(C)C)c3ccccc3n2)c1.Cl` as the molecule, how does the “hERG current change (%, negative = inhibition) at 1uM” value read?
**A.** 12.6%

**Q.** Which “hERG current change (%, negative = inhibition) at 1uM” value does the source give for `Cc1ccc(CNC(=O)C2CCC(=O)N(CCc3ccc(Cl)cc3)C2)cc1` (centres unmarked) here?
**A.** -6.96%

**Q.** How did the “hERG current change (%, negative = inhibition) at 1uM” value turn out when `COc1ccc(C(=O)NNC(=S)NC(=O)c2ccc(Cl)cc2)cc1` was run?
**A.** 15.4%

**Q.** Which “hERG current change (%, negative = inhibition) at 1uM” value does the source give for `O=C(Nc1ccc(F)cc1)Nc1sccc1-c1nc2ccccc2s1` here?
**A.** 8.46%

**Q.** For `O=C(NCC1CCC(C(=O)O)CC1)c1cccnc1` (centres unmarked), which “hERG current change (%, negative = inhibition) at 1uM” value is on record?
**A.** 19.8%

**Q.** Which “hERG current change (%, negative = inhibition) at 1uM” value does the source give for `OCCN(CCO)c1ncnc2c1sc1nc(N3CCOCC3)c3c(c12)CCCC3` here?
**A.** 2.45%

**Q.** For `CCOC(=O)C1(C)/C(=N/Nc2cccc(Cl)c2)C(=O)C(=O)N1c1ccccc1` (centres unmarked), which “hERG current change (%, negative = inhibition) at 1uM” value is on record?
**A.** 11.3%

**Q.** For `CC(C)NC(=S)NNc1nc2ccccc2s1`, which “hERG current change (%, negative = inhibition) at 1uM” value is on record?
**A.** 3.34%

**Q.** How did the “hERG current change (%, negative = inhibition) at 1uM” value turn out when `NC(=O)c1ccc[n+](Cc2cccc3ccccc23)c1.[Br-]` was run?
**A.** 10.3%

**Q.** Which “hERG current change (%, negative = inhibition) at 1uM” value does the source give for `CC1CCc2cc(F)ccc2N1C(=O)c1ccncc1` (centres unmarked) here?
**A.** 11.2%

**Q.** With `O=C(C1CC(c2ccccc2O)=NO1)N1CCc2ccccc2C1` (centres unmarked) as the molecule, how does the “hERG current change (%, negative = inhibition) at 1uM” value read?
**A.** 17.5%

**Q.** `Cc1sc(NC(=O)c2ccc(F)cc2)c(CN2CCCCCC2)c1C` was tested. Which “hERG current change (%, negative = inhibition) at 1uM” value did it give?
**A.** 0.206%

**Q.** Which “hERG current change (%, negative = inhibition) at 1uM” value does the source give for `CCc1nnc(NS(=O)(=O)c2ccc(NC(=O)c3cc(Cl)ccc3OC)cc2)s1` here?
**A.** 9.12%

**Q.** With `O=C(CCC1CCN(C(=O)c2ccco2)CC1)NCc1ccc(F)cc1` as the molecule, how does the “hERG current change (%, negative = inhibition) at 1uM” value read?
**A.** -62%

**Q.** Which “hERG current change (%, negative = inhibition) at 1uM” value does the source give for `COc1ccc(CNC(=O)CN(Cc2ccccc2)C(=O)CCC(=O)Nc2nccs2)cc1` here?
**A.** 14%

**Q.** How did the “hERG current change (%, negative = inhibition) at 1uM” value turn out when `O=C(CSC(=S)N1CCCCC1)Nc1nc(-c2ccccc2)c(-c2ccccc2)o1` was run?
**A.** -11.6%

**Q.** For `O=C1CCCc2sc3c(c2N1)CCCCC3`, which “hERG current change (%, negative = inhibition) at 1uM” value is on record?
**A.** -0.78%

**Q.** For `COc1nccnc1NS(=O)(=O)c1ccc(NC(=S)NC(=O)/C=C/c2ccccc2)cc1`, which “hERG current change (%, negative = inhibition) at 1uM” value is on record?
**A.** 3.31%

**Q.** Which “hERG current change (%, negative = inhibition) at 1uM” value does the source give for `COc1ccc(-c2nn3c(-c4cccc(C)c4)nnc3s2)cc1OC` here?
**A.** 18.3%

**Q.** With `O=C(NCCC1CCCCN1S(=O)(=O)c1ccccc1)C(=O)NCC1CCCO1` (centres unmarked) as the molecule, how does the “hERG current change (%, negative = inhibition) at 1uM” value read?
**A.** 7.26%

**Q.** Which “hERG current change (%, negative = inhibition) at 1uM” value does the source give for `CCCCCC(=O)NNC1=NCC(Cc2ccccc2)S1` (centres unmarked) here?
**A.** 3.18%

**Q.** For `Cc1cccnc1CN1CCN(C(=O)CCc2nnc(CCc3ccccc3)o2)CC1`, which “hERG current change (%, negative = inhibition) at 1uM” value is on record?
**A.** 16.8%

**Q.** `CC1NC(=O)N(C)C2NC(=O)N(C)C(c3ccccc3)C12` (centres unmarked) was tested. Which “hERG current change (%, negative = inhibition) at 1uM” value did it give?
**A.** 11.1%

**Q.** Which “hERG current change (%, negative = inhibition) at 1uM” value does the source give for `CCCC(O)(c1ccc(Cl)cc1)C(CN1CCOCC1)c1ccccc1` (centres unmarked) here?
**A.** 6.75%

**Q.** With `Cc1ccc(/C=N\NC(=O)c2ccc3c(c2)OCO3)o1` as the molecule, how does the “hERG current change (%, negative = inhibition) at 1uM” value read?
**A.** 12.7%

**Q.** For `CSc1cccc(NC(=O)CN(C2CCCCC2)S(C)(=O)=O)c1`, which “hERG current change (%, negative = inhibition) at 1uM” value is on record?
**A.** 2.65%

**Q.** For `CCOc1ccc(N(CC(=O)NCc2ccccc2C)S(C)(=O)=O)cc1`, which “hERG current change (%, negative = inhibition) at 1uM” value is on record?
**A.** -3.2%

**Q.** For `Cc1ccc(C(=O)N/C(=C\c2ccccc2)C(=O)NCc2cccnc2)cc1`, which “hERG current change (%, negative = inhibition) at 1uM” value is on record?
**A.** -41.8%

**Q.** With `COc1cccc(-n2nnnc2SCC(=O)Nc2ccc(NC(C)=O)cc2)c1` as the molecule, how does the “hERG current change (%, negative = inhibition) at 1uM” value read?
**A.** 9.32%

**Q.** `O=C(N=C1SC2CS(=O)(=O)CC2N1Cc1ccccc1Cl)C1CC1` (centres unmarked) was tested. Which “hERG current change (%, negative = inhibition) at 1uM” value did it give?
**A.** 10.1%

**Q.** Which “hERG current change (%, negative = inhibition) at 1uM” value does the source give for `COc1ccccc1CNC(=O)c1cnn2c(C(F)F)cc(C)nc12` here?
**A.** -1.86%

**Q.** Which “hERG current change (%, negative = inhibition) at 1uM” value does the source give for `COc1cccc(C(CC(=O)NCCN2CCOCC2)NS(=O)(=O)c2ccc(C)cc2)c1OC` (centres unmarked) here?
**A.** 10.2%
